Literature values as cited in paper PMC4065351.
Entries with a single value are a further part of the results.

Columns and labels:
[1] = test system: Cys1 (position 1, -----CG----); assay: UV-vis (inferred from 'similar procedures' for ref. 18); conditions: free dipeptide, reduced thiol
[2] = test system: Nterm (position 1, -----CG----); assay: as above; conditions: free dipeptide, reduced thiol

## Cysteinylglycine (Cys-Gly) dipeptide (synthetic / not applicable)
[1]; pKns, amino group deprotonated
  pKa: 9.48
[1]; pKs, amino group protonated
  pKa: 7.87
[2]; pKn, thiol protonated
  pKa: 7.14
[2]; pKsn, thiol deprotonated (thiolate)
  pKa: 8.75
